These results are taken from the supplement of paper PMC9446081.

Screen size: about 39,000 compounds; about 220 (0.56%) showed activity. The list shows a part of the results.
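Further: static incubation at 37 °C against the wild-type strain, values averaged over two biological replicates.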

The experiment relates to Escherichia coli K-12 BW25113. Nature of the experiment: relative growth (OD600 normalised to plate interquartile mean) (fraction); higher = less growth inhibition, active = 0.2 or less. As to conditions: 50 µM; LB; incubation time: overnight (16-24 h).
On to `CO[C@H](CN(C)C(=O)c1ccccc1F)[C@@H](C)CN([C@H](C)CO)S(=O)(=O)c1ccc(Cl)cc1`, for which the relative growth was inactive: 0.973.
With `C[C@@H]1CN([C@@H](C)CO)C(=O)c2cc(C#Cc3ccccn3)cnc2O[C@@H]1CN(C)C(=O)CCN1CCCCC1` the figure was inactive: 0.993; with `COCC#Cc1cnc2c(c1)C(=O)N([C@@H](C)CO)C[C@@H](C)[C@@H](CN(C)C(=O)c1cnccn1)O2`, inactive: 0.999; with `C[C@@H]1CN([C@@H](C)CO)C(=O)Cc2cc(NC(=O)CCCCCC(=O)Nc3ccccc3N)ccc2O[C@@H]1CN(C)Cc1ccc(-c2ccccc2)cc1`, inactive: 0.98.
With `C[C@H]1CN([C@@H](C)CO)C(=O)c2cc(C#CC3CCCC3)cnc2O[C@@H]1CN(C)S(=O)(=O)c1cccc(F)c1` the figure was inactive: 0.993.
Consider `C[C@H](CO)N1C[C@H](C)[C@H](CN(C)Cc2ccc3c(c2)OCO3)OCCCC[C@H](C)Oc2ccc(NC(=O)NC3CCCCC3)cc2C1=O`, for which the relative growth was inactive: 1.02.
`CC(C)NC(=O)Nc1ccc2c(c1)C(=O)N([C@@H](C)CO)C[C@H](C)[C@@H](CN(C)C(=O)Nc1ccc3c(c1)OCO3)O2`: the relative growth is inactive: 0.994.
The value for `C[C@@H]1CN([C@H](C)CO)C(=O)c2cc(NC(=O)C3CCCCC3)ccc2O[C@@H](C)CCCCO[C@H]1CN(C)Cc1ccc2c(c1)OCO2` was inactive: 0.948; that for `C[C@H](CO)N1C[C@H](C)[C@@H](CN(C)Cc2ccc(-c3ccccc3)cc2)Oc2ccc(NC(=O)C3CCCCC3)cc2C1=O` was inactive: 0.952; that for `COc1ccc(S(=O)(=O)Nc2cccc3c2O[C@H](CN(C)CC2CC2)[C@H](C)CN([C@H](C)CO)C3=O)cc1` was inactive: 1.
Turning to `Cc1noc(C)c1S(=O)(=O)Nc1ccc2c(c1)C(=O)N([C@H](C)CO)C[C@H](C)[C@H](CN(C)Cc1ccccc1)O2`, the relative growth is inactive: 0.976.
With `Cl.[LiH]` the figure was inactive: 1.01.
With `C[C@H]1CN([C@@H](C)CO)C(=O)c2cc(C#CCN(C)C)cnc2O[C@H]1CN(C)Cc1cccc(C(=O)O)c1` the figure was inactive: 0.997; with `Cn1cnc(S(=O)(=O)N2C[C@H](O)COC[C@@H]3O[C@H](CC(=O)N4CCN(c5ccccc5)CC4)CC[C@H]32)c1`, inactive: 0.988; with `C[C@H]1CN([C@@H](C)CO)C(=O)c2cccc(NS(C)(=O)=O)c2O[C@@H]1CN(C)Cc1ccc(C(=O)Nc2ccccc2N)cc1`, inactive: 0.995.
As for `C[C@H]1CCCCO[C@H](CN(C)C(=O)CCCN(C)C)[C@@H](C)CN([C@@H](C)CO)C(=O)c2cc(N(C)C)ccc2O1`, the relative growth was inactive: 1.
In the case of `Cc1noc(C)c1S(=O)(=O)Nc1ccc2c(c1)C(=O)N([C@H](C)CO)C[C@H](C)[C@H](CN(C)Cc1ccc(C(F)(F)F)cc1)OCCCC[C@@H](C)O2`, the relative growth was inactive: 0.906.
`C[C@@H]1CN([C@H](C)CO)C(=O)c2cc(N(C)C)ccc2O[C@@H](C)CCCCO[C@@H]1CN(C)S(=O)(=O)c1cn(C)cn1`: the relative growth was inactive: 1.03.
The value for `COc1ccc(CN(C)C[C@H]2OCCCC[C@H](C)Oc3ccc(NC(=O)C4CCCCC4)cc3C(=O)N([C@@H](C)CO)C[C@H]2C)cc1` was inactive: 0.963; that for `COc1ccc(S(=O)(=O)N(C)C[C@@H]2OCCCC[C@H](C)Oc3ccc(NS(=O)(=O)c4ccc(Cl)cc4)cc3C(=O)N([C@@H](C)CO)C[C@@H]2C)cc1` was inactive: 1.06.
With `CC1(C)[C@H](C(N)=O)CC[C@@]1(C)C(=O)O` the figure was inactive: 1; with `C[C@@H]1CCCCO[C@@H](CN(C)CC2CCCCC2)[C@@H](C)CN([C@H](C)CO)C(=O)c2cc(NC(=O)Nc3cccc4ccccc34)ccc2O1`, inactive: 1.03.
With `Cc1ccc(S(=O)(=O)N(C)C[C@H]2Oc3c(NS(=O)(=O)c4cn(C)cn4)cccc3C(=O)N([C@@H](C)CO)C[C@@H]2C)cc1` the figure was inactive: 0.959.
As to `COc1ccc(S(=O)(=O)N(C)C[C@H]2Oc3c(NC(=O)c4ccncc4)cccc3C(=O)N([C@@H](C)CO)C[C@H]2C)cc1`, the relative growth is inactive: 0.969.
With `C[C@H](CO)N1C[C@H](C)[C@H](CN(C)S(=O)(=O)c2ccccc2)OCCCC[C@H](C)Oc2ccc(NC(=O)Nc3ccc(F)cc3)cc2C1=O` the figure was inactive: 0.999; with `C[C@@H]1CCCCO[C@H](CN(C)Cc2ccccc2)[C@H](C)CN([C@H](C)CO)C(=O)c2cc(NC(=O)Nc3ccc(C(F)(F)F)cc3)ccc2O1`, inactive: 1.02.
The value for `C[C@@H]1CN([C@H](C)CO)C(=O)CCCn2nncc2CO[C@H]1CN(C)C(=O)C1CC1` was inactive: 0.997.
The value for `Cc1ccc(S(=O)(=O)N(C)C[C@H]2Oc3ccc(NC(=O)Nc4cccc5ccccc45)cc3CC(=O)N([C@H](C)CO)C[C@H]2C)cc1` was inactive: 1.04; that for `C[C@@H]1CN([C@@H](C)CO)S(=O)(=O)c2ccc(-c3ccc(C(=O)N(C)C)cc3)cc2O[C@@H]1CN(C)C(=O)Cc1ccccn1` was inactive: 1.03; that for `C[C@@H]1CCCCO[C@H](CN(C)C(=O)C2CCCCC2)[C@H](C)CN([C@H](C)CO)C(=O)c2cc(NC(=O)Nc3cccc4ccccc34)ccc2O1` was inactive: 1.03.
For the molecule `CO[C@@H]1CN(C)C(=O)c2ccc(NC(=O)c3ccc(F)cc3)cc2OC[C@@H](C)N(C(=O)CN(C)C)C[C@@H]1C`, the relative growth is inactive: 0.996.
The value for `Cc1ccccc1S(=O)(=O)N1C[C@H](O)COC[C@H]2O[C@@H](CC(=O)NCCc3ccncc3)CC[C@@H]21` was inactive: 1.01.
The value for `C[C@@H]1CCCCO[C@@H](CN(C)Cc2ccc(Cl)c(Cl)c2)[C@@H](C)CN([C@@H](C)CO)C(=O)c2cc(NC(=O)C3CCCCC3)ccc2O1` was inactive: 0.988.
With `COCC#Cc1cnc2c(c1)C(=O)N([C@H](C)CO)C[C@H](C)[C@H](CN(C)C(=O)Nc1ccccc1OC)O2`, the relative growth is inactive: 1.04.
As to `CCCN(C)C[C@H]1OCCCC[C@H](C)Oc2ccc(NC(=O)Cc3ccccc3)cc2C(=O)N([C@@H](C)CO)C[C@H]1C`, the relative growth is inactive: 1.02.
With `C[C@H]1CCCCO[C@@H](CN(C)C(=O)NC2CCCCC2)[C@@H](C)CN([C@@H](C)CO)C(=O)c2cc(NC(=O)C3CCCCC3)ccc2O1` the figure was inactive: 0.942.
